The other results are listed elsewhere or left out. These are enrichments in a pooled selection; single values are uncertain. Scores sum up all selected molecules that hold the word; the word was not tested alone.
tested on: IMP3 RRM1-2; assay: 6-mer SELEX enrichment z-score vs GST control; IMP3 is the RNA-binding protein IGF2BP3; higher = more enriched by binding; conditions: construct: RRM1-2 (1-163); SELEX round: R2
Method: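 SELEX-seq with GST-tagged IMP3 RRM1-2 (Met1-Asn163) and an N40 RNA pool, round 2. 6-mer enrichment z-score normalised to GST SELEX. RNA written as DNA (T = U).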

IMP3 RRM1-2, sequence (chain, as listed by the source): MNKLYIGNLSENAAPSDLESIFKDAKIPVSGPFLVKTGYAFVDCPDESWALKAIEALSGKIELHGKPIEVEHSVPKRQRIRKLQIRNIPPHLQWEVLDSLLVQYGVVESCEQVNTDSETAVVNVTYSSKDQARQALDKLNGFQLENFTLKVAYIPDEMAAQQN

| Sequence | 6-mer SELEX enrichment z-score |
| --- | --- |
| TTTCAG | 0.547 |
| CTCATA | 1.09 |
| ACATAG | 1.3 |
| GATCAC | 2.17 |
| TGGGAA | -0.319 |
| TAGCTA | 0.02 |
| CGAAGA | -1.71 |
| TCTGAG | -0.069 |
| TATAAG | -0.179 |
| CGATAT | -0.306 |
| CTGACG | -0.598 |
| CCCGAA | -1.89 |
| CGCGTG | -0.12 |
| GATGGA | -0.626 |
| GAAGGC | -0.358 |
| TCTCTA | 0.32 |
| AGTTCA | 0.653 |
| TAGAAT | -0.464 |
| CGACCA | 0.188 |
| TTGGTC | 0.525 |

| Sequence | 6-mer SELEX enrichment z-score |
| --- | --- |
| CCTGGA | -0.661 |
| CGTAAA | -1.18 |
| AACAAG | -0.243 |
| ATATAG | 0.058 |
| CAATGT | -0.011 |
| CCGGGG | -0.397 |
| CCAGCG | -0.38 |
| GTAGAC | -0.319 |
| TTGGTA | 0.496 |
| ATTGCT | 0.175 |
| GGGAGG | -0.098 |
| ACGAGC | -0.516 |
| AGGCCC | -0.586 |
| GTTTTG | 0.32 |
| CTTATG | 0.117 |
| ACTCTC | 0.291 |
| TCGAGT | 0.335 |
| CTCGCA | 0.355 |
| TCTCGT | 0.611 |
| AGACAT | 0.502 |

biological target: IMP3 full-length (UniProt O00425); assay: as above; conditions: construct: FL IMP3 (1-579); SELEX round: R4
Method: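 SELEX-seq with GST-tagged full-length IMP3 and an N40 RNA pool, round 4. Each 6-mer is scored as an enrichment z-score of sequence tags containing it, normalised to the matching GST SELEX round. RNA written as DNA (T = U).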

UniProt O00425, sequence (O00425 whole entry): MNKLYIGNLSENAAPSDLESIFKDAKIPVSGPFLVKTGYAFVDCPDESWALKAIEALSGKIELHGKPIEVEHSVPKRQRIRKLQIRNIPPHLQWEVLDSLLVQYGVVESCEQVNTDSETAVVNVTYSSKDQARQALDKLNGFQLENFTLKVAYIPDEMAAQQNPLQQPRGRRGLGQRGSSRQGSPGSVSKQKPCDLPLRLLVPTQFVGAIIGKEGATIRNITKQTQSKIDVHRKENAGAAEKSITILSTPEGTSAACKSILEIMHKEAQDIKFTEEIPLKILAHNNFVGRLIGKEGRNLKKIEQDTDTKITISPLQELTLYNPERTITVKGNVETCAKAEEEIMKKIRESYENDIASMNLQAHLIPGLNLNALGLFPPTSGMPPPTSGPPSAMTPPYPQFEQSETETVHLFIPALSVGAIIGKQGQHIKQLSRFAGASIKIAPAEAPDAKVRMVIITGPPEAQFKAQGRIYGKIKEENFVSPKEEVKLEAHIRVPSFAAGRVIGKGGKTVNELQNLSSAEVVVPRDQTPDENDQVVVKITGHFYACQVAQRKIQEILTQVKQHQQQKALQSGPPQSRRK

| Sequence | 6-mer SELEX enrichment z-score |
| --- | --- |
| TTTCAG | 0.499 |
| CTCATA | 0.76 |
| ACATAG | 1.68 |
| GATCAC | 1.07 |
| TGGGAA | -0.091 |
| TAGCTA | -0.298 |
| CGAAGA | -1.15 |
| TCTGAG | -0.391 |
| TATAAG | 0.032 |
| CGATAT | -0.115 |
| CTGACG | -0.865 |
| CCCGAA | -2.13 |
| CGCGTG | -0.764 |
| GATGGA | -0.135 |
| GAAGGC | 0.32 |
| TCTCTA | 0.065 |
| AGTTCA | 0.603 |
| TAGAAT | -0.151 |
| CGACCA | -0.48 |
| TTGGTC | 0.279 |

| Sequence | 6-mer SELEX enrichment z-score |
| --- | --- |
| CCTGGA | -0.79 |
| CGTAAA | -1.64 |
| AACAAG | -0.187 |
| ATATAG | 0.569 |
| CAATGT | 0.154 |
| CCGGGG | 0.508 |
| CCAGCG | -0.945 |
| GTAGAC | -0.653 |
| TTGGTA | -0.02 |
| ATTGCT | 0.098 |
| GGGAGG | 0.712 |
| ACGAGC | -1.23 |
| AGGCCC | -0.024 |
| GTTTTG | -0.242 |
| CTTATG | -0.21 |
| ACTCTC | -0.243 |
| TCGAGT | -0.272 |
| CTCGCA | 0.199 |
| TCTCGT | 0.138 |
| AGACAT | 0.591 |

tested on: IMP3 KH1-2; assay: as above; conditions: construct: KH1-2 (164-376); SELEX round: R4
Method: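 SELEX-seq with GST-tagged IMP3 KH1-2 (Pro164-Phe376) and an N40 RNA pool, round 4 (stringent 300/600 mM KCl washes). 6-mer z-score of sequence-tag enrichment normalised to the corresponding GST SELEX round; RNA k-mers written as DNA (T for U).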

IMP3 KH1-2, sequence (chain, as listed by the source): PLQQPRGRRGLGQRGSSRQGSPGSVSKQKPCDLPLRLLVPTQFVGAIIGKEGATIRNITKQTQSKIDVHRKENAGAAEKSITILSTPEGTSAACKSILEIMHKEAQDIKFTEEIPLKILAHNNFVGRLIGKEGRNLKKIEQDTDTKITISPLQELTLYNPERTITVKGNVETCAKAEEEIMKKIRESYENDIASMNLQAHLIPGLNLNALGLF

| Sequence | 6-mer SELEX enrichment z-score |
| --- | --- |
| TTTCAG | 0.42 |
| CTCATA | 0.759 |
| ACATAG | 1.12 |
| GATCAC | 0.333 |
| TGGGAA | 0.224 |
| TAGCTA | -0.204 |
| CGAAGA | -0.861 |
| TCTGAG | -0.746 |
| TATAAG | 0.72 |
| CGATAT | 0.363 |
| CTGACG | -1.08 |
| CCCGAA | -2.28 |
| CGCGTG | -1.35 |
| GATGGA | 0.614 |
| GAAGGC | 0.06 |
| TCTCTA | 0.204 |
| AGTTCA | 0.295 |
| TAGAAT | 0.649 |
| CGACCA | -0.75 |
| TTGGTC | 0.025 |

| Sequence | 6-mer SELEX enrichment z-score |
| --- | --- |
| CCTGGA | -0.745 |
| CGTAAA | -1.54 |
| AACAAG | -0.248 |
| ATATAG | 1.26 |
| CAATGT | -0.005 |
| CCGGGG | 0.819 |
| CCAGCG | -2.03 |
| GTAGAC | -1.06 |
| TTGGTA | -0.209 |
| ATTGCT | 0.516 |
| GGGAGG | 1.62 |
| ACGAGC | -4.5 |
| AGGCCC | -0.199 |
| GTTTTG | -0.286 |
| CTTATG | 0.197 |
| ACTCTC | -0.143 |
| TCGAGT | -0.843 |
| CTCGCA | -0.213 |
| TCTCGT | -0.254 |
| AGACAT | 0.353 |

tested on: IMP3 KH3-4; assay: as above; conditions: construct: KH3-4 (377-579); SELEX round: R4
Method: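 SELEX-seq with GST-tagged IMP3 KH3-4 (Pro377-Lys579) and an N40 RNA pool, round 4. 6-mer z-score of sequence-tag enrichment normalised to the corresponding GST SELEX round; RNA k-mers written as DNA (T for U).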

IMP3 KH3-4, sequence (chain, as listed by the source): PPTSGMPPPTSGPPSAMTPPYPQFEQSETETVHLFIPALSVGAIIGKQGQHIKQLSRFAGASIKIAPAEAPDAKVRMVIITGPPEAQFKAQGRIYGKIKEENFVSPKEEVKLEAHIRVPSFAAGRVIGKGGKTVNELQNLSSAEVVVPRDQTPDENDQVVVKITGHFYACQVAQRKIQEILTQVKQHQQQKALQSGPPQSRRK

| Sequence | 6-mer SELEX enrichment z-score |
| --- | --- |
| TTTCAG | 0.459 |
| CTCATA | 0.438 |
| ACATAG | 1.37 |
| GATCAC | 0.14 |
| TGGGAA | 0.346 |
| TAGCTA | -0.061 |
| CGAAGA | -0.568 |
| TCTGAG | -0.648 |
| TATAAG | 1.5 |
| CGATAT | 0.623 |
| CTGACG | -1.19 |
| CCCGAA | -2.7 |
| CGCGTG | -1.29 |
| GATGGA | 0.902 |
| GAAGGC | 0.248 |
| TCTCTA | 0.217 |
| AGTTCA | 0.266 |
| TAGAAT | 1.44 |
| CGACCA | -1.35 |
| TTGGTC | 0.073 |

| Sequence | 6-mer SELEX enrichment z-score |
| --- | --- |
| CCTGGA | -0.926 |
| CGTAAA | -1.34 |
| AACAAG | 0.223 |
| ATATAG | 2.06 |
| CAATGT | 0.23 |
| CCGGGG | 0.243 |
| CCAGCG | -2.14 |
| GTAGAC | -1.14 |
| TTGGTA | -0.131 |
| ATTGCT | 0.555 |
| GGGAGG | 1.14 |
| ACGAGC | -4.38 |
| AGGCCC | -0.749 |
| GTTTTG | -0.075 |
| CTTATG | 0.445 |
| ACTCTC | -0.473 |
| TCGAGT | -0.721 |
| CTCGCA | -0.438 |
| TCTCGT | -0.147 |
| AGACAT | 0.564 |
